According to PubChem BioAssay (NCATS):
Several values for one entry are separate records, joined by “and”; a condition that tells them apart may be missing. Equal entries are not always repeated. The list shows a part of the results. Shown are side measurements of this screen, not its main read-out; they come without a call. Compounds called inactive in the main read-out are mostly missing here. For some assays here: Words in brackets tell the shape of the fitted curve; partial curves, single points and poor fits give uncertain potencies.

Legend:
[1] = qHTS Assay for Lipid Storage Modulators (AID 1519); settings: Drosophila S3 cells, BODIPY lipid droplet/cell ratio, laser cytometry, cells loaded with oleic acid
Summary of the method: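 Cells seeded at 5,000 per well were treated with compounds over a concentration series and loaded with oleic acid (400 uM, as added). Lipid droplet fluorescence (488 nm excitation, 500-530 nm channel) was read by laser-scanning cytometry and normalized to 20 uM Triacsin C.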

[2] = S16 Schwann cell PMP22 intronic element beta-lactamase assay (AID 624044); settings: S16 rat Schwann cells, PMP22 element beta-lactamase FRET, 24 h; note: nearly all actives have a fitted effect of over 15% in size
Summary of the method: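 Rat S16 Schwann cells with beta-Lac driven by a PMP22 intronic element, compound-treated 24 h at 37 °C. LiveBLAzer FRET B/G read: 460 nm normalized to potassium clavulanate vs DMSO; 535 nm FRET as viability; concentration-effect curves classified.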

[3] = qHTS assay for small molecule agonists of retinoid X receptor alpha signaling (AID 588544); settings: HEK293T RXRa-UAS-bla, beta-lactamase reporter, 18 h; 530 nm emission
[4] = qHTS assay for small molecule antagonists of retinoid X receptor alpha signaling (AID 588546); settings: HEK293T RXRa-UAS-bla, beta-lactamase ratio, antagonist mode; measured here: W530 green channel, cytotoxicity proxy;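 note: cells stimulated with 9-cis-retinoic acid as agonist; % is set by controls: 0 for no effect and ±100 for the full control effect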
Summary of the method: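 Beta-lactamase reporter inhibition, read as CCF4 fluorescence ratio (ex 405, em 460/530 nm) after 2 h at RT. HEK293T UAS-bla cells, 2500/well, were stimulated with 9-cis-RA at 500 or 100 nM final alongside test compound for 18 h at 37 C.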

[5] = qHTS assay for small molecule antagonists of peroxisome proliferator-activated receptor gamma signaling (AID 588537); settings: HEK293 PPARg-UAS-bla, beta-lactamase ratio, antagonist mode; measured here: W460 blue channel
Summary of the method: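 Step one: plate 3000 HEK293 UAS-bla cells per well in medium with 1% stripped serum and hold 6-6.5 h at 37 C. Step two: add compound and 50 nM agonist for 16 h. Step three: CCF4 loading, fluorescence read.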

[6] = qHTS Assay for Modulators of Human Peripheral Myelin Protein 22 (PMP22) Expression/Activity (AID 1967); settings: Cell-based PMP22 reporter, dual-color luciferase ratio; measured here: red reporter channel AC50; EF-alpha promoter control reporter in MSC80 mouse Schwann cells
Summary of the method: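 Mouse MSC80 Schwann line, Pmp22 promoter–CBG68 reporter, EF-alpha–CBR internal control. 24h compound exposure, 37 °C/5% CO2, DMEM + 10% FBS. Readout: corrected green/red luminescence ratio, normalized to untreated cells; concentration-response curves fitted and classified.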

[7] = qHTS assay for small molecule antagonists of peroxisome proliferator-activated receptor delta signaling (AID 588535); settings: HEK293T PPARd-UAS-bla, beta-lactamase FRET ratio, 18 h; 460 nm channel;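 note: cells co-treated with a PPAR-delta agonist as stimulator during compound exposure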
Summary of the method: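 Cells were seeded at 4000 per well in assay medium containing 2% charcoal/dextran FBS and held 5 hrs at 37 C. Compounds were then added for 18 hrs. CCF4 substrate was applied for 2 hrs at room temperature before fluorescence reading.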

[8] = qHTS Assay for Inhibitors of PDE-IV (AID 607); settings: HEK293 ACTOne CNG channel cells, membrane potential fluorescence; measured here: parental cell counter-screen;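 note: parental cells stimulated with forskolin 10 µM plus RO 20-1724 100 µM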
Summary of the method: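 Live HEK293 cells with a modified cyclic nucleotide-gated (CNG) channel report intracellular cAMP via membrane-potential dye fluorescence (ex 535/em 590 nm). Endogenous PDE-IV was targeted. Compounds were tested at up to 22.9 uM final; RO 20-1724 100 uM served as control.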

[9] = qHTS assay for small molecule antagonists of androgen receptor signaling (AID 588516); settings: AR-UAS-bla HEK293, beta-lactamase ratio, antagonist mode, 16 h; measured here: W460 blue channel fit
Summary of the method: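 Antagonist mode: inhibition of R1881-stimulated (10 nM final) bla reporter in GeneBLAzer AR HEK 293 cells, 16 h at 37C, compounds titrated. IC50 and efficacy from Hill-equation fits of 405/460–530 nm FRET ratios.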

[10] = qHTS assay for small molecule antagonists of glucocorticoid receptor signaling (AID 588533); settings: HeLa MMTV-bla, GRE beta-lactamase ratio, antagonist mode, 18 h; measured here: W530 channel AC50;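 note: cells stimulated with 2 nM dexamethasone as agonist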
[11] = qHTS assay for small molecule antagonists of vitamin D receptor signaling (AID 588541); settings: HEK293T VDR-UAS-bla, beta-lactamase ratio, antagonist mode; measured here: W460 blue channel (cell viability)
[12] = qHTS Validation Assay to Find Inhibitors of Chronic Active B-Cell Receptor Signaling (AID 485345); settings: ABC-DLBCL cells, chronic BCR signaling reporter; measured here: CBR control luciferase (viability counter)
Summary of the method: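 TMD8 ABC-DLBCL cells stably carrying doxycycline-inducible IkappaBalpha–green luciferase fusion plus unfused red luciferase; compounds 46 uM to 3 nM, 4 h at 37C with doxycycline. Corrected green/red luminescence ratio normalized to 10 uM MG-132 and basal cell wells; curves fitted.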

[13] = Nrf2 qHTS screen for inhibitors: Validation (AID 493153); settings: A549 ARE-Fluc reporter, 18-24 h; AC50: CellTiter-Fluor fluorescence read, measured here: cytotoxicity CellTiter-Fluor AC50; viability change: measured here: cytotoxicity max response
Summary of the method: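 A549 cells carrying an ARE-driven firefly luciferase reporter, in 5% FBS OPTI-MEM, were treated with compounds in concentration-response for 18-24 h at 37°C. Viability was read by CellTiter-Fluor fluorescence, then Nrf2 activity by luciferase luminescence.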

[14] = measured here: cell count channel max response
[15] = measured here: cell number channel AC50
[16] = measured here: lipid (BODIPY) channel AC50
[17] = measured here: lipid channel max response
[18] = measured here: 460 nm blue channel
Tags give direction and shape of the fitted curve.

Question: With COc1cc([C@@H]2c3cc4c(cc3[C@H](O)[C@H]3COC(=O)[C@H]23)OCO4)cc(OC)c1OC as the molecule, how does the max response [1, 14] read?
Answer: Its max response is 99.6%.

Question: What about the AC50 [1, 15] of the same molecule?
Answer: Its AC50 is 1.12 µM [rising, full curve].

Question: What about the AC50 [1, 16] of the same molecule?
Answer: The AC50 was 2 µM [rising, full curve].

Question: And the max response [1, 17]?
Answer: Its max response is 118%.

Question: And the AC50 [2, 18]?
Answer: The AC50 was 0.0199 µM [falling, full curve].

Question: What about the AC50 ([2]; measured here: 530 nm viability channel) of the same molecule?
Answer: The AC50 was 0.1 µM [rising, full curve, poor fit].

Question: Which max response [1, 14] does the source give for CCOP(=S)(OCC)SCn1c(=O)oc2cc(Cl)ccc21 here?
Answer: Its max response is 30.4%.

Question: What about the AC50 [1, 15] of the same molecule?
Answer: The AC50 was 15.8 µM [rising, partial curve].

Question: And the AC50 [1, 16]?
Answer: Its AC50 is 7.94 µM [rising, partial curve].

Question: What about the max response [1, 17] of the same molecule?
Answer: Its max response is 43.9%.

Question: And the max response [3]?
Answer: The max response was 27.9%.

Question: What about the max response [4] of the same molecule?
Answer: Its max response is 5.53%.

Question: With CC(C)c1cccc(C(C)C)c1O as the molecule, how does the max response [1, 14] read?
Answer: The max response was -37.8% and -1.94%.

Question: And the AC50 [1, 15]?
Answer: Its AC50 is 14.1 µM [falling, partial curve].

Question: And the AC50 [1, 16]?
Answer: The AC50 was 10 µM [falling, partial curve, poor fit] and 3.55 µM [falling, full curve, poor fit].

Question: What about the max response [1, 17] of the same molecule?
Answer: The max response was -32.2% and -2.46%.

Question: And the AC50 [5]?
Answer: The AC50 was 50.1 µM [rising, single point].

Question: What does the source list for N#CC(C#N)=Cc1cc(O)c(O)c(O)c1?
Answer: max response [1, 14]: 27%; AC50 [1, 15]: 3.55 µM [falling, partial curve, poor fit]; AC50 [1, 16]: 6.31 µM [falling, partial curve, poor fit]; max response [1, 17]: 22.9%; AC50 [6]: 67.5 µM [falling, partial curve]; AC50 [2, 18]: 15.8 µM [falling, partial curve, poor fit]

Question: For N#Cc1nn(-c2c(Cl)cc(C(F)(F)F)cc2Cl)c(N)c1S(=O)C(F)(F)F (centres undefined), which max response [1, 14] is on record?
Answer: The max response was -35.6%.

Question: What about the AC50 [1, 15] of the same molecule?
Answer: The AC50 was 11.2 µM [falling, partial curve, poor fit].

Question: And the AC50 [1, 16]?
Answer: The AC50 was 2.51 µM [falling, partial curve, poor fit].

Question: And the max response [1, 17]?
Answer: Its max response is -39.6%.

Question: And the max response [7]?
Answer: Its max response is 3.29%.

Question: And the max response [3]?
Answer: The max response was 15.5%.

Question: And the max response [4]?
Answer: The max response was 1.26%.

Question: What about the AC50 [2, 18] of the same molecule?
Answer: Its AC50 is 25.1 µM [falling, partial curve, poor fit].

Question: Which results are given for CCCCN(CC)c1c([N+](=O)[O-])cc(C(F)(F)F)cc1[N+](=O)[O-]?
Answer: max response [1, 14]: -52.4%; AC50 [1, 15]: 25.1 µM [falling, single point]; AC50 [1, 16]: 28.2 µM [falling, partial curve]; max response [1, 17]: -78.3%; max response [3]: 10.7%

Question: Which results are given for CN[C@@H]1C[C@H](c2ccc(Cl)c(Cl)c2)c2ccccc21?
Answer: AC50 [8]: 25.1 µM [rising, single point]; max response [1, 14]: 43%; AC50 [1, 15]: 6.31 µM [rising, full curve]; AC50 [1, 16]: 6.31 µM [rising, full curve]; max response [1, 17]: 47.2%

Question: What does the source list for COC(C)(C)CCCC(C)C/C=C/C(C)=C/C(=O)OC(C)C (centres undefined)?
Answer: max response [1, 14]: 30.1%; AC50 [1, 15]: 20 µM [rising, partial curve]; AC50 [1, 16]: 35.5 µM [rising, partial curve]; max response [1, 17]: 56.1%; AC50 [9]: 0.0112 µM [falling, full curve, poor fit]; AC50 [5]: 50.1 µM [rising, single point] and 50.1 µM [falling, partial curve, poor fit]; max response [3]: 45.6%

Question: For COc1cccc2c1cc([N+](=O)[O-])c1c(C(=O)O)cc3c(c12)OCO3, which AC50 [8] is on record?
Answer: Its AC50 is 12.6 µM [rising, partial curve].

Question: And the max response [1, 14]?
Answer: The max response was 29.3% and 79.5%.

Question: And the AC50 [1, 15]?
Answer: The AC50 was 35.5 µM [rising, partial curve, poor fit].

Question: And the AC50 [1, 16]?
Answer: The AC50 was 35.5 µM [rising, single point] and 35.5 µM [rising, partial curve, poor fit].

Question: And the max response [1, 17]?
Answer: The max response was 53.9% and 92%.

Question: Which max response [1, 14] does the source give for N#Cc1c(Cl)c(Cl)c(Cl)c(C#N)c1Cl here?
Answer: The max response was -44.7%.

Question: And the AC50 [1, 15]?
Answer: The AC50 was 2.24 µM [falling, full curve].

Question: What about the AC50 [1, 16] of the same molecule?
Answer: Its AC50 is 1.58 µM [falling, full curve].

Question: And the max response [1, 17]?
Answer: Its max response is -98%.

Question: What about the AC50 [10] of the same molecule?
Answer: The AC50 was 35.5 µM [falling, partial curve, poor fit].

Question: And the max response [7]?
Answer: Its max response is -129%.

Question: What about the AC50 [11] of the same molecule?
Answer: The AC50 was 4.47 µM [falling, full curve].

Question: What about the max response [3] of the same molecule?
Answer: Its max response is -28%.

Question: What does the source list for COc1ccc2[nH]cc(C3=CCNCC3)c2c1?
Answer: AC50 [8]: 5.01 µM [falling, partial curve]; max response [1, 14]: 97.8%; AC50 [1, 15]: 1.41 µM [rising, full curve]; AC50 [1, 16]: 0.794 µM [rising, full curve]; max response [1, 17]: 3.65%

Question: Which AC50 [8] does the source give for O=C(O)c1nn(Cc2ccc(Cl)cc2Cl)c2ccccc12 here?
Answer: The AC50 was 15.8 µM [rising, partial curve].

Question: And the max response [1, 14]?
Answer: The max response was 39.7%.

Question: And the AC50 [1, 15]?
Answer: Its AC50 is 14.1 µM [rising, partial curve].

Question: And the AC50 [1, 16]?
Answer: Its AC50 is 15.8 µM [rising, partial curve].

Question: What about the max response [1, 17] of the same molecule?
Answer: The max response was 50.6%.

Question: What about the AC50 [6] of the same molecule?
Answer: The AC50 was 95.3 µM [falling, single point].

Question: And the AC50 [12]?
Answer: The AC50 was 7.31 µM [rising, partial curve].

Question: What about the viability change [13] of the same molecule?
Answer: The viability change was -0.0475%.
